What was measured:
[1] = tested on: female diabetic db/db mice; assay: Blood glucose-lowering effects of multiple subcutaneous doses in fed female diabetic db/db mice; format: in vivo, mouse; details: for blood glucose levels: 24 hour blood glucose profile, s.c. once weekly, vs vehicle or dulaglutide (FIG. 11); for HbA1c increase: by the end of the study (day 36), vs vehicle or dulaglutide (FIG. 12)
Description: Female, healthy, lean (BKS.Cg-(lean)/OlaHsd or BKS.Cg-Dock7(m)+/+ Lepr(db)J) and diabetes-prone, obese db/db (BKS.Cg-+Leprdb/+Leprdb/OlaHsd or BKS.CG-m +/+ Lepr(db)/J) mice were ordered from Envigo RMS Inc. or Charles River Laboratories. All animals were group housed in shoebox cages with wood chip bedding and were acclimated for approximately 2 to 3 weeks prior to dosing phase.
Mice were housed under vivarium conditions including a 12 hour light/dark cycle (light phase 04:00 AM - 4:00 PM), a room temperature between 20 - 26° C. and a relative humidity between 30 - 70%. All animals had free access to Greenfield city water and a Purina Fomulab Diet 5008. At the study start mice were approximately 10-12 weeks old.
Blood was collected for a HbA1c and blood glucose measurement on day 9 via tail clips. Blood glucose concentrations were measured using AlphaTRAK glucometers extended range (code 29 strips). Glucometer measurements were taken prior to any other in life activities and were performed in duplicate. If the values differed by more than 20 mg/dL (calculated glucometer value) a third value was recorded. Body mass measurements were collected on days 9 and 15. HbA1c and body mass values were used for block randomization. Animals were assigned to treatment groups (n = 8/group) and to new cages and cage mates (n=4 animals/cage) on day 15 according to block randomization results. The lean group was included in the study as an age-matched, healthy reference group.
Animals were either treated with a subcutaneous injection volume of 5 ml/kg of vehicle (sterile PBS), dulaglutide, SEQ ID NO: 8 or SEQ ID NO: 7 once on days 1, 8, 15, 22, and 27 of the dosing phase. Dosing was completed between 10:00 and 12:00 AM and was adjusted to the most recent body mass recording of each individual. Injection solutions including Trulicity (Dulaglutide Pen) were prepared by addition of sterile PBS to the stock solutions or Pen formulation in order to achieve the appropriate concentrations.
1) Blood glucose concentrations in morning-fed animals: Animals had unlimited access to water and feed during the experiment. Blood glucose was measured prior to any other in life activities between 10:00 to 12:00 AM on days 1, 2, 8, 9, 15, 16, 22, 23, 27, and 28 as well as 24 hours post-dose on days 2, 9, 16, 23, and 28. In addition, on days 1 and 22, blood was collected 1, 2, 3, 4, 6 and 24 hours post-dose (FIG. 11). […] If the values differed by more than 20 mg/dL (calculated glucose value), then a third value was recorded. The Area Under the Curve (AUC) was calculated by the trapezoid method for each individual and time period as indicated. […]

[2] = Conformational and thermal stability on UNit (intrinsic fluorescence BCM and static light scattering); format: physicochemical; details: for Tagg: UNit SLS 266 nm, 5 mg/mL in phosphate buffer pH 7.4; for Tm: UNit, 5 mg/mL in phosphate buffer pH 7.4, 20 to 95° C. at 0.3° C./min
Description: Conformational stability and propensity to aggregate was determined simultaneously for the GLP-1RA/FGF21 Fc fusion proteins using a UNit (Unchained Labs, CA, USA). The UNit combines the analysis of intrinsic fluorescence of a protein to detect unfolding of the protein and a Static Light Scattering (SLS) measurement in order to investigate the aggregation behavior.
Data were acquired for the fusion proteins at a concentration of 5 mg/mL formulated in phosphate buffer at pH 7.4. A volume of 9 µL of each sample were loaded into a UNi capillary holder and analyzed in triplicate on the UNit. The temperature was increased from 20 to 95° C. at a constant linear rate of 0.3° C./min. The BaryCentric Mean (BCM) indicating the intrinsic fluorescence and SLS signals detected with a 266 nm laser were plotted against the applied temperature in order to obtain melting temperatures (Tm) and aggregation onset temperatures (Tagg). Data were analyzed using the UNit Analysis software v.

[3] = Pharmacokinetics after single subcutaneous administration in mouse; format: in vivo, female C57Bl/6 mice; details: 0.3 mg/kg s.c.
Description: (§1) Plasma concentrations and pharmacokinetic parameters of GLP-1RA/FGF21 Fc fusion proteins were determined after single subcutaneous administration of 0.3 mg/kg in solution to female C57Bl/6 mice or male Cynomolgus monkeys using three different methods. Blood samples were obtained at time points from 30 minutes to 168 hours after dosing.
(§2) Plasma samples were analyzed for the intact FGF21 part of the fusion proteins with an ELISA kit (F1231-K01, Eagle Biosciences, USA). The assay utilized the two-site sandwich technique with two selected antibodies that bound to different epitopes of human intact FGF21. One of the antibodies specifically bound to the N-terminal amino acids (aa 29-35) of human FGF21, and the other antibody specifically bound to the C-terminus (aa 203-209) of human FGF21. Assay standards, controls and unknown samples were added directly to wells of microplate that was coated with an anti-human FGF21 (aa 29-35)-specific antibody. Simultaneously, a horseradish peroxidase conjugated anti-human FGF21 (aa 203-209)-specific antibody was added to each well. After the first incubation period, the antibody on the walls of the microtiter wells captured human FGF21 in the sample and unbound protein in each microtiter well was washed away. A “sandwich” of “anti-FGF21 antibody-human intact FGF21-HRP conjugated tracer antibody” was formed. The unbound tracer antibody was removed in the subsequent washing step. For the detection of the immunocomplex, the well was then incubated with a substrate solution in a timed reaction and then measured in a spectrophotometric microplate reader. The enzymatic activity of the immunocomplex bound to human intact FGF21 on the wall of the microtiter wells was directly proportional to the amount of intact FGF21 in the sample.
The concentration of the full-length GLP-1RA/FGF21 Fc fusion proteins in plasma were determined utilizing an ELISA method. The N-terminus of the fusion proteins were captured by a mouse monoclonal anti-GLP1 antibody (Mesoscale Discovery, MSD). Following blocking the plates with 150 µL of Blocker A (MSD) for 1 hour at room temperature (RT) with gentle shaking and washing 3 times with 300 µL wash buffer 50 µL of diluted plasma samples (standards and PK study samples) were added to each well and the plates were incubated for 1 hour at RT with gentle shaking. […] Following washing 3 times with 300 µL PBS-T 150 µL read buffer was added to the wells.
Plasma samples were analyzed for the intact GLP-1 part of the fusion proteins with a GLP-1 ELISA method. […] Following washing 3 times with 300 µL PBS-T, 150 µL read buffer was added to the wells.
The pharmacokinetic parameters were calculated by the program WinNonlin 6.4 using a non-compartmental model and linear trapezoidal interpolation calculation. […]

[4] = Pharmacokinetics after single subcutaneous administration in non-human primate; format: in vivo, male Cynomolgus monkeys; details: 0.3 mg/kg s.c.
Description: as §1, §2
The concentration of the full-length GLP-1RA/FGF21 Fc fusion proteins in plasma were determined utilizing an ELISA method. The N-terminus of the fusion proteins were captured by a mouse monoclonal anti-GLP1 antibody (Mesoscale Discovery, MSD). Following blocking the plates with 150 µL of Blocker A (MSD) for 1 hour at room temperature (RT) with gentle shaking and washing 3 times with 300 µL wash buffer 50 µL of diluted plasma samples (standards and PK study samples) were added to each well and the plates were incubated for 1 hour at RT with gentle shaking. Following washing 3 times with 300 µL wash buffer, 50 µL of the primer detection antibody (C-terminus rabbit anti-FGF21 antibody, Pineda Antikörper-Service, Berlin, Germany) was added to each well and the plates were incubated for 1 hour at RT. Following washing 3 times with 300 µL wash buffer, 25 µL goat-anti-rabbit antibody (Sulfo-Tag labelled, MSD) diluted in PBS-Tween 0.05% (PBS-T) was added to each well and the plates were incubated for 1 hour at RT. Following washing 3 times with 300 µL PBS-T 150 µL read buffer was added to the wells.
Plasma samples were analyzed for the intact GLP-1 part of the fusion proteins with a GLP-1 ELISA method. The ELISA plates were coated with mouse monoclonal anti-GLP-1 antibody (Mesoscale Discovery, MSD). Following blocking with 150 µL of Blocker A (MSD) for 1 hour at room temperature (RT) with gentle shaking and washing 3 times with 300 µL PBS-T, 50 µL of diluted plasma samples (standards and PK study samples) were added to each well and the plates were incubated for 1 hour at RT with gentle shaking. Following washing 3 times with 300 µL PBS-T, 25 µL of goat anti-human IgG diluted (1/3,333) in PBS-T (Sulfo-Tag labelled, MSD) was added to each well and the plates were incubated for 1 hour at RT. Following washing 3 times with 300 µL PBS-T, 150 µL read buffer was added to the wells.
The pharmacokinetic parameters were calculated by the program WinNonlin 6.4 using a non-compartmental model and linear trapezoidal interpolation calculation. The results are presented in FIGS. 7 and 8 as well as in Table 6.

Molecule	blood glucose levels [1]	HbA1c increase [1]	Tagg [2] [°C]	Tm [2] [°C]	further results
SEQ ID NO: 8: GLP-1RA/FGF21 Fc fusion protein (protein, Fusion Protein, GLP-1RA/FGF21 Fc fusion protein) GHGEGTFTSDKSKQLEEEAVRLFIEWLKAGGPKKIRYSGGGGGGGSGGGGSGGGGSA[in this place human IgG1 Fc with changes]GGGSGSAHPIPDSSPLLQFGGQVRQRYLYTDDACQTEAHLEIREDGTVGGAADQSPESLLQLKALKPGVIQILGVKTSRFLCQRPDGALYGSLHFDPEACSFRELLLEDGYNVYQSEAHGLPLHLPGCKSPHRDPAPRGPARFLPLPGLPPAPPEPPGILAPQPPDVGSSDPLSMVYPSQGRSPSYAS	the lowering effect on blood glucose levels was significantly greater than in vehicle or dulaglutide treated animals	more pronounced suppression of HbA1c increase by the end of the study than vehicle or dulaglutide treated animals			
SEQ ID NO: 7: GLP-1RA/FGF21 Fc fusion protein (protein, Fusion Protein, GLP-1RA/FGF21 Fc fusion protein) GHGEGTFTSDKSKQLEEEAVRLFIEWLKAGGPKKIRYSGGGGGGGSGGGGSGGGGSA[in this place human IgG1 Fc with changes]GGGSGSAHPIPDSSPLLQFGGQVRQRYLYTDDACQTEAHLEIREDGTVGGAADQSPESLLQLKALKPGVIQILGVKTSRFLCQRPDGALYGSLHFDPEACSFRELLLEDGYNVYQSEAHGLPLHLPGCKSPHRDPAPRGPARFLPLPGLPPAPPEPPGILAPQPPDVGSSDPLSMVGSQGRSPSYAS	the lowering effect on blood glucose levels was significantly greater than in vehicle or dulaglutide treated animals	more pronounced suppression of HbA1c increase by the end of the study than vehicle or dulaglutide treated animals			
7 (protein, Fusion Protein) GHGEGTFTSDKSKQLEEEAVRLFIEWLKAGGPKKIRYSGGGGGGGSGGGGSGGGGSA[in this place human IgG1 Fc with changes]GGGSGSAHPIPDSSPLLQFGGQVRQRYLYTDDACQTEAHLEIREDGTVGGAADQSPESLLQLKALKPGVIQILGVKTSRFLCQRPDGALYGSLHFDPEACSFRELLLEDGYNVYQSEAHGLPLHLPGCKSPHRDPAPRGPARFLPLPGLPPAPPEPPGILAPQPPDVGSSDPLSMVGSQGRSPSYAS			66.1	68.7	t½ mouse ([3]; assay FGF21 intact): 14.2 h; t½ mouse ([3]; assay full-length): 13.9 h; t½ monkey ([4]; assay FGF21 intact): 31.7 h; t½ monkey ([4]; assay GLP-1 intact): 21.3 h; t½ monkey ([4]; assay full-length): 28.7 h
3 (protein, Fusion Protein) GHGEGTFTSDKSKQLEEEAVRLFIEWLKAGGPKKIRYSGGGGGGGSGGGGSGGGGSA[in this place human IgG4 Fc with changes]GGGSGSAHPIPDSSPLLQFGGQVRQRYLYTDDACQTEAHLEIREDGTVGGAADQSPESLLQLKALKPGVIQILGVKTSRFLCQRPDGALYGSLHFDPEACSFRELLLEDGYNVYQSEAHGLPLHLPGCKSPHRDPAPRGPARFLPLPGLPPAPPEPPGILAPQPPDVGSSDPLSMVGSQGRSPSYAS			65.3	63.9	
5 (protein, Fusion Protein) GHGEGTFTSDKSKQLEEEAVRLFIEWLKAGGPKKIRYSGGGGGGGSGGGGSGGGGSA[in this place human IgG4 Fc with changes]GGGSGSAHPIPDSSPLLQFGGQVRQRYLYTDDACQTEAHLEIREDGTVGGAADQSPESLLQLKALKPGVIQILGVKTSRFLCQRPDGALYGSLHFDPEACSFRELLLEDGYNVYQSEAHGLPLHLPGCKSPHRDPAPRGPARFLPLPGLPPAPPEPPGILAPQPPDVGSSDPLSMVYPSQGRSPSYAS			63.2	62.6	

— patent US20230265152A1, “GLP-1R AGONIST / FGF21 FUSION PROTEINS” (SANOFI, priority 2020, published 2023)
